From the supplement of paper PMC9588766 come the findings set out here.

Structures are written as SMILES. Where a name gives a salt, the structure may show the parent alone. Whole data set: some 1,900 compounds, median “cell viability of compound + 1 nM pemigatinib relative to pemigatinib-only (DMSO) wells” near 0.95, cut for the lowest 2% near 0.22. Some of the results follow.

The subject of the test is PDC-DUC18828. Briefly: cell viability of compound + 1 nM pemigatinib relative to pemigatinib-only (DMSO) wells (fraction); PDC-DUC18828 is a patient-derived cholangiocarcinoma cell line; higher = less growth inhibition. The conditions noted are these: first compound 1 µM; pemigatinib concentration 1 nM; 72 h. As for the experimental part: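 Selleck Bioactive library screen in the patient-derived FGFR2 fusion-positive ICC cell line PDC-DUC18828 (500 cells/well). Each compound was tested at 1 uM with 1 nM pemigatinib, in triplicate, for 72 h. Viability was read by CellTiter-Glo and normalised to plate DMSO controls. Value is the paper's averaged normalised viability.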
As to `COc1ccc(S(=O)(=O)N(C(C)=O)c2ccccc2/C=C/c2cc[n+]([O-])cc2)cc1` + CCN1C(=O)N(c2c(F)c(OC)cc(OC)c2F)Cc2cnc3[nH]c(CN4CCOCC4)cc3c21 [pemigatinib], the cell viability is 0.503.

`Cc1c(F)cc(C(=O)NC2CC2)cc1-c1ccc(C(=O)NCC(C)(C)C)cn1` + CCN1C(=O)N(c2c(F)c(OC)cc(OC)c2F)Cc2cnc3[nH]c(CN4CCOCC4)cc3c21 [pemigatinib]: the cell viability came to 0.989. With `CC(=O)Nc1ncc([N+](=O)[O-])s1` [Nithiamide] + CCN1C(=O)N(c2c(F)c(OC)cc(OC)c2F)Cc2cnc3[nH]c(CN4CCOCC4)cc3c21 [pemigatinib], the cell viability was 0.983. For `CCCCCCCCCCCCCCCC(=O)O[C@@H]1[C@@H](O)[C@@H](O)[C@@H]([C@H](NC(=O)[C@@H]2C[C@@H](CCC)CN2C)[C@H](C)Cl)O[C@@H]1SC` [Clindamycin palmitate HCl] + CCN1C(=O)N(c2c(F)c(OC)cc(OC)c2F)Cc2cnc3[nH]c(CN4CCOCC4)cc3c21 [pemigatinib], the cell viability stood at 1.01. For the molecule `CNc1cccc(CCOc2ccc3c(c2)CN(CC(F)(F)F)C(=O)[C@H](CC(=O)O)C3)n1` + CCN1C(=O)N(c2c(F)c(OC)cc(OC)c2F)Cc2cnc3[nH]c(CN4CCOCC4)cc3c21 [pemigatinib], the cell viability was 0.858. Regarding `O=C(/C=C\n1cnc(-c2cc(C(F)(F)F)cc(C(F)(F)F)c2)n1)NNc1ccccn1` [Verdinexor (KPT-335)] + CCN1C(=O)N(c2c(F)c(OC)cc(OC)c2F)Cc2cnc3[nH]c(CN4CCOCC4)cc3c21 [pemigatinib], the cell viability was 0.417. Consider `CC1Cc2ccccc2N1NC(=O)c1ccc(Cl)c(S(N)(=O)=O)c1` (configuration not stated) [Indapamide] + CCN1C(=O)N(c2c(F)c(OC)cc(OC)c2F)Cc2cnc3[nH]c(CN4CCOCC4)cc3c21 [pemigatinib], for which the cell viability came to 1.03. Consider `CCC(=O)c1c(O)cc(O)cc1O` [Flopropione] + CCN1C(=O)N(c2c(F)c(OC)cc(OC)c2F)Cc2cnc3[nH]c(CN4CCOCC4)cc3c21 [pemigatinib], for which the cell viability came out at 0.953. Turning to `C=CC(=O)Nc1ccc2ncnc(Nc3cccc(Br)c3)c2c1` + CCN1C(=O)N(c2c(F)c(OC)cc(OC)c2F)Cc2cnc3[nH]c(CN4CCOCC4)cc3c21 [pemigatinib], the cell viability came to 0.589. For `CN1CCN(CCOc2cc(OC3CCOCC3)c3c(Nc4c(Cl)ccc5c4OCO5)ncnc3c2)CC1` [Saracatinib (AZD0530)] + CCN1C(=O)N(c2c(F)c(OC)cc(OC)c2F)Cc2cnc3[nH]c(CN4CCOCC4)cc3c21 [pemigatinib], the cell viability came to 0.696.

Consider `CCOCC(O)COc1ccc(NC(=O)CC[S+](C)C)cc1` (configuration not stated) [Suplatast Tosylate] + CCN1C(=O)N(c2c(F)c(OC)cc(OC)c2F)Cc2cnc3[nH]c(CN4CCOCC4)cc3c21 [pemigatinib], for which the cell viability was 1.06. In the case of `FC(F)c1nc2ccccc2n1-c1nc(N2CCOCC2)nc(N2CCOCC2)n1` + CCN1C(=O)N(c2c(F)c(OC)cc(OC)c2F)Cc2cnc3[nH]c(CN4CCOCC4)cc3c21 [pemigatinib], the cell viability turned out to be 1.03.

Take `Cc1nnc(NS(=O)(=O)c2ccc(N)cc2)s1` [Sulfamethizole] + CCN1C(=O)N(c2c(F)c(OC)cc(OC)c2F)Cc2cnc3[nH]c(CN4CCOCC4)cc3c21 [pemigatinib]: the cell viability is 0.952.

Regarding `COc1ccccc1S(=O)(=O)Nc1ccc2c(c1)CN(C)C(=O)N2` + CCN1C(=O)N(c2c(F)c(OC)cc(OC)c2F)Cc2cnc3[nH]c(CN4CCOCC4)cc3c21 [pemigatinib], the cell viability is 0.935. As to `CC1(C)O[C@@H]2C[C@H]3[C@@H]4CCC5=CC(=O)C=C[C@]5(C)[C@@]4(F)[C@@H](O)C[C@]3(C)[C@]2(C(=O)CO)O1` [Triamcinolone Acetonide] + CCN1C(=O)N(c2c(F)c(OC)cc(OC)c2F)Cc2cnc3[nH]c(CN4CCOCC4)cc3c21 [pemigatinib], the cell viability came to 0.911. As to `O=C(O)CCCc1ccccc1` [Sodium Phenylbutyrate] + CCN1C(=O)N(c2c(F)c(OC)cc(OC)c2F)Cc2cnc3[nH]c(CN4CCOCC4)cc3c21 [pemigatinib], the cell viability was 1.06. As to `Cc1cnc(NC(=O)C2=C(O)c3ccccc3S(=O)(=O)N2C)s1` [Meloxicam] + CCN1C(=O)N(c2c(F)c(OC)cc(OC)c2F)Cc2cnc3[nH]c(CN4CCOCC4)cc3c21 [pemigatinib], the cell viability is 1. To `CC(C)Oc1ccc(C(=O)N[C@H](CNC(=O)CN(C)C)Cc2ccc(-c3cn4cccc([C@H](C)O)c4n3)cc2)cc1Cl` + CCN1C(=O)N(c2c(F)c(OC)cc(OC)c2F)Cc2cnc3[nH]c(CN4CCOCC4)cc3c21 [pemigatinib] belongs 0.341; to `C[C@@H]1C[C@H]2[C@@H]3CCC4=CC(=O)C=C[C@]4(C)[C@@]3(F)[C@@H](O)C[C@]2(C)[C@@]1(O)C(=O)CO` [Dexamethasone (DHAP)] + CCN1C(=O)N(c2c(F)c(OC)cc(OC)c2F)Cc2cnc3[nH]c(CN4CCOCC4)cc3c21 [pemigatinib], 0.904; to `OC1(c2ccc(Cl)c(C(F)(F)F)c2)CCN(CCCC(c2ccc(F)cc2)c2ccc(F)cc2)CC1` [Penfluridol] + CCN1C(=O)N(c2c(F)c(OC)cc(OC)c2F)Cc2cnc3[nH]c(CN4CCOCC4)cc3c21 [pemigatinib], 0.861. Turning to `CCCc1nc(C)c2c(=O)nc(-c3cc(S(=O)(=O)N4CCN(CC)CC4)ccc3OCC)[nH]n12` [Vardenafil HCl Trihydrate] + CCN1C(=O)N(c2c(F)c(OC)cc(OC)c2F)Cc2cnc3[nH]c(CN4CCOCC4)cc3c21 [pemigatinib], the cell viability amounted to 0.938.

Consider `CNC(=O)c1cc(COc2nnc(Nc3ccc(Cl)cc3)c3ccoc23)ccn1` [Telatinib] + CCN1C(=O)N(c2c(F)c(OC)cc(OC)c2F)Cc2cnc3[nH]c(CN4CCOCC4)cc3c21 [pemigatinib], for which the cell viability worked out at 0.98.

As to `COc1cc2nccc(Oc3ccc(NC(=O)C4(C(=O)Nc5ccc(F)cc5)CC4)cc3)c2cc1OC` + CCN1C(=O)N(c2c(F)c(OC)cc(OC)c2F)Cc2cnc3[nH]c(CN4CCOCC4)cc3c21 [pemigatinib], the cell viability was 0.908. In the case of `O=C(O)/C=C/c1ccc(Cn2ccnc2)cc1` [Ozagrel] + CCN1C(=O)N(c2c(F)c(OC)cc(OC)c2F)Cc2cnc3[nH]c(CN4CCOCC4)cc3c21 [pemigatinib], the cell viability worked out at 0.913. To `O=C(O)/C=C/c1ccc(Cn2ccnc2)cc1` [Ozagrel HCl] + CCN1C(=O)N(c2c(F)c(OC)cc(OC)c2F)Cc2cnc3[nH]c(CN4CCOCC4)cc3c21 [pemigatinib] belongs 1.03. In the case of `Cc1cc([C@@H](C)Nc2ccccc2C(=O)O)c2nc(N3CCOCC3)cc(=O)n2c1` + CCN1C(=O)N(c2c(F)c(OC)cc(OC)c2F)Cc2cnc3[nH]c(CN4CCOCC4)cc3c21 [pemigatinib], the cell viability was 0.874.

Take `COCCOC(=O)C1=C(C)NC(C)=C(C(=O)OC/C=C/c2ccccc2)C1c1cccc([N+](=O)[O-])c1` (configuration not stated) [Cilnidipine] + CCN1C(=O)N(c2c(F)c(OC)cc(OC)c2F)Cc2cnc3[nH]c(CN4CCOCC4)cc3c21 [pemigatinib]: the cell viability was determined as 1.01. To `CCOc1nc2cccc(C(=O)O)c2n1Cc1ccc(-c2ccccc2-c2noc(=O)[nH]2)cc1` [Azilsartan] + CCN1C(=O)N(c2c(F)c(OC)cc(OC)c2F)Cc2cnc3[nH]c(CN4CCOCC4)cc3c21 [pemigatinib] belongs 0.978; to `O=c1c(-c2ccc(O)cc2)coc2c([C@@H]3O[C@H](CO)[C@@H](O)[C@H](O)[C@H]3O)c(O)ccc12` [Puerarin] + CCN1C(=O)N(c2c(F)c(OC)cc(OC)c2F)Cc2cnc3[nH]c(CN4CCOCC4)cc3c21 [pemigatinib], 1.01; to `Cc1cc(C)cc(C(=O)NOCCCCCC(=O)NO)c1` + CCN1C(=O)N(c2c(F)c(OC)cc(OC)c2F)Cc2cnc3[nH]c(CN4CCOCC4)cc3c21 [pemigatinib], 0.457.

As for `COc1cc(O)c(CC=C(C)C)c(O)c1C(=O)/C=C/c1ccc(O)cc1` [Xanthohumol] + CCN1C(=O)N(c2c(F)c(OC)cc(OC)c2F)Cc2cnc3[nH]c(CN4CCOCC4)cc3c21 [pemigatinib], the cell viability is 0.968.

Turning to `Cc1cc(/N=N/c2ccc(S(=O)(=O)Nc3ccccn3)cc2)c(N)cc1O` + CCN1C(=O)N(c2c(F)c(OC)cc(OC)c2F)Cc2cnc3[nH]c(CN4CCOCC4)cc3c21 [pemigatinib], the cell viability is 0.971. For the molecule `CC(C)(Cc1ccc2ccccc2c1)NC[C@@H](O)COc1cccc(Cl)c1C#N` + CCN1C(=O)N(c2c(F)c(OC)cc(OC)c2F)Cc2cnc3[nH]c(CN4CCOCC4)cc3c21 [pemigatinib], the cell viability was 0.953. Turning to `O=C(c1cn(Cc2cncn2Cc2ccc(Br)cc2)cc1-c1cccc2ccccc12)N1CCOCC1` + CCN1C(=O)N(c2c(F)c(OC)cc(OC)c2F)Cc2cnc3[nH]c(CN4CCOCC4)cc3c21 [pemigatinib], the cell viability was 0.671. Regarding `CCN1CCN(C(=O)N[C@@H](C(=O)N[C@@H]2C(=O)N3C(C(=O)O)=C(CSc4nnnn4C)CS[C@H]23)c2ccc(O)cc2)C(=O)C1=O` [Cefoperazone] + CCN1C(=O)N(c2c(F)c(OC)cc(OC)c2F)Cc2cnc3[nH]c(CN4CCOCC4)cc3c21 [pemigatinib], the cell viability came out at 1.09. In the case of `CN(C)CCOc1ccc(/C(=C(/CCCl)c2ccccc2)c2ccccc2)cc1` [Toremifene Citrate] + CCN1C(=O)N(c2c(F)c(OC)cc(OC)c2F)Cc2cnc3[nH]c(CN4CCOCC4)cc3c21 [pemigatinib] it was 0.875. For the molecule `Cc1ccc(Cl)c(Nc2ccccc2C(=O)O)c1Cl` [Meclofenamate Sodium] + CCN1C(=O)N(c2c(F)c(OC)cc(OC)c2F)Cc2cnc3[nH]c(CN4CCOCC4)cc3c21 [pemigatinib], the cell viability was determined as 0.936.
